Test results: article PMC9911399, “Two distinct binding modes provide the RNA-binding protein RbFox with extraordinary sequence specificity”
Changes are numbered by the printed parent chain; changes in the protein carry UniProt numbers. The list shows a part of the results.

B1: AUUGACU (DNA:RNA)
RNA: GGGAGACCGGAAUUCAGAUUGUCCAUUGACUUUAAAUCCCGUCGUAGCCACCA
DNA 1: CAATCTGAATTCCGGTCTCCC
DNA 2: TGGTGGCTACGACGGGATT
B2: UCCCGGC (DNA:RNA)
RNA: GGGAGACCGGAAUUCAGAUUGUCCUCCCGGCUUAAAUCCCGUCGUAGCCACCA
DNA 1: CAATCTGAATTCCGGTCTCCC
DNA 2: TGGTGGCTACGACGGGATT
B3: GGCAGGA (DNA:RNA)
RNA: B2 RNA with U25G, C26G, C28A, C31A
DNA 1: CAATCTGAATTCCGGTCTCCC
DNA 2: TGGTGGCTACGACGGGATT
B4: GAAUGUC (DNA:RNA)
RNA: B2 RNA with U25G, C26A, C27A, C28U, G30U
DNA 1: CAATCTGAATTCCGGTCTCCC
DNA 2: TGGTGGCTACGACGGGATT
B5: CACUCGG (DNA:RNA)
RNA: B2 RNA with U25C, C26A, C28U, G29C, C31G
DNA 1: CAATCTGAATTCCGGTCTCCC
DNA 2: TGGTGGCTACGACGGGATT
B6: GCGUUGG (DNA:RNA)
RNA: B2 RNA with U25G, C27G, C28U, G29U, C31G
DNA 1: CAATCTGAATTCCGGTCTCCC
DNA 2: TGGTGGCTACGACGGGATT
B7: GCAUUCA (DNA:RNA)
RNA: B1 RNA with A25G, U26C, U27A, G28U, A29U, U31A
DNA 1: CAATCTGAATTCCGGTCTCCC
DNA 2: TGGTGGCTACGACGGGATT
B8: CCCGAUU (DNA:RNA)
RNA: B1 RNA with A25C, U26C, U27C, C30U
DNA 1: CAATCTGAATTCCGGTCTCCC
DNA 2: TGGTGGCTACGACGGGATT
B9: GAUUCCC (DNA:RNA)
RNA: B1 RNA with A25G, U26A, G28U, A29C, U31C
DNA 1: CAATCTGAATTCCGGTCTCCC
DNA 2: TGGTGGCTACGACGGGATT
B10: UUGAGAU (DNA:RNA)
RNA: B1 RNA with A25U, U27G, G28A, A29G, C30A
DNA 1: CAATCTGAATTCCGGTCTCCC
DNA 2: TGGTGGCTACGACGGGATT
B11: GGAGGCA (DNA:RNA)
RNA: B1 RNA with A25G, U26G, U27A, A29G, U31A
DNA 1: CAATCTGAATTCCGGTCTCCC
DNA 2: TGGTGGCTACGACGGGATT
B12: AGGCAGA (DNA:RNA)
RNA: B1 RNA with U26G, U27G, G28C, C30G, U31A
DNA 1: CAATCTGAATTCCGGTCTCCC
DNA 2: TGGTGGCTACGACGGGATT
B13: UAGACCU (DNA:RNA)
RNA: B1 RNA with A25U, U26A, U27G, G28A, A29C
DNA 1: CAATCTGAATTCCGGTCTCCC
DNA 2: TGGTGGCTACGACGGGATT
B14: GUAGAUA (DNA:RNA)
RNA: B1 RNA with A25G, U27A, C30U, U31A
DNA 1: CAATCTGAATTCCGGTCTCCC
DNA 2: TGGTGGCTACGACGGGATT
B15: CUAGUGG (DNA:RNA)
RNA: B1 RNA with A25C, U27A, A29U, C30G, U31G
DNA 1: CAATCTGAATTCCGGTCTCCC
DNA 2: TGGTGGCTACGACGGGATT
B16: GCGAGGU (DNA:RNA)
RNA: B2 RNA with U25G, C27G, C28A, C31U
DNA 1: CAATCTGAATTCCGGTCTCCC
DNA 2: TGGTGGCTACGACGGGATT
B17: AUAAACG (DNA:RNA)
RNA: B1 RNA with U27A, G28A, U31G
DNA 1: CAATCTGAATTCCGGTCTCCC
DNA 2: TGGTGGCTACGACGGGATT
B18: UUUUCCG (DNA:RNA)
RNA: B1 RNA with A25U, G28U, A29C, U31G
DNA 1: CAATCTGAATTCCGGTCTCCC
DNA 2: TGGTGGCTACGACGGGATT
B19: CAACCCC (DNA:RNA)
RNA: B2 RNA with U25C, C26A, C27A, G29C, G30C
DNA 1: CAATCTGAATTCCGGTCTCCC
DNA 2: TGGTGGCTACGACGGGATT
B20: GACCAGG (DNA:RNA)
RNA: B2 RNA with U25G, C26A, G29A, C31G
DNA 1: CAATCTGAATTCCGGTCTCCC
DNA 2: TGGTGGCTACGACGGGATT
B21: AUGAACG (DNA:RNA)
RNA: B1 RNA with U27G, G28A, U31G
DNA 1: CAATCTGAATTCCGGTCTCCC
DNA 2: TGGTGGCTACGACGGGATT
B22: CACCAUU (DNA:RNA)
RNA: B1 RNA with A25C, U26A, U27C, G28C, C30U
DNA 1: CAATCTGAATTCCGGTCTCCC
DNA 2: TGGTGGCTACGACGGGATT
B23: CGUUAAA (DNA:RNA)
RNA: B1 RNA with A25C, U26G, G28U, C30A, U31A
DNA 1: CAATCTGAATTCCGGTCTCCC
DNA 2: TGGTGGCTACGACGGGATT
B24: GUGGGGU (DNA:RNA)
RNA: B1 RNA with A25G, U27G, A29G, C30G
DNA 1: CAATCTGAATTCCGGTCTCCC
DNA 2: TGGTGGCTACGACGGGATT
B25: AGCAGUA (DNA:RNA)
RNA: B2 RNA with U25A, C26G, C28A, G30U, C31A
DNA 1: CAATCTGAATTCCGGTCTCCC
DNA 2: TGGTGGCTACGACGGGATT
B26: GCAGGAU (DNA:RNA)
RNA: B1 RNA with A25G, U26C, U27A, A29G, C30A
DNA 1: CAATCTGAATTCCGGTCTCCC
DNA 2: TGGTGGCTACGACGGGATT
B27: ACGGCUU (DNA:RNA)
RNA: B1 RNA with U26C, U27G, A29C, C30U
DNA 1: CAATCTGAATTCCGGTCTCCC
DNA 2: TGGTGGCTACGACGGGATT
B28: ACGCUAC (DNA:RNA)
RNA: B2 RNA with U25A, C27G, G29U, G30A
DNA 1: CAATCTGAATTCCGGTCTCCC
DNA 2: TGGTGGCTACGACGGGATT
B29: CCCGGUU (DNA:RNA)
RNA: B2 RNA with U25C, C28G, G30U, C31U
DNA 1: CAATCTGAATTCCGGTCTCCC
DNA 2: TGGTGGCTACGACGGGATT
B30: UUAGCGG (DNA:RNA)
RNA: B1 RNA with A25U, U27A, A29C, C30G, U31G
DNA 1: CAATCTGAATTCCGGTCTCCC
DNA 2: TGGTGGCTACGACGGGATT
B31: AGGUUUA (DNA:RNA)
RNA: B1 RNA with U26G, U27G, G28U, A29U, C30U, U31A
DNA 1: CAATCTGAATTCCGGTCTCCC
DNA 2: TGGTGGCTACGACGGGATT

The binders below were run against T1, RBFOX1 RRM RbFoxmut (Fox-RRM*) (Homo sapiens, UniProt Q9NWB1 109-208, R118D;E147R;N151S;E152T) (assay: EMSA; HiTS-Eq, 1 nM pool, 10 min; buffer printed only for the single-RNA assays: 10 mM Tris pH 7.5, 150 mM NaCl, 3.4 mM EDTA, 0.001% NP-40, 30 C). Conditions: tags: His6 N-terminal (pET28a); label: 5' 32P.
T1 sequence: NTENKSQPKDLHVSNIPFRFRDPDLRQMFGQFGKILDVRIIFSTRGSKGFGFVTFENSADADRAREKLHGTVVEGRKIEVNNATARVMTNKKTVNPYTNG
Summary of the method: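 Purified RbFox RRM, wild type or mutant, was incubated for 10 min in 50 µL with 1 nM of a 5′-radiolabelled RNA pool carrying 7 randomized nucleotides, whose flanks were annealed to DNA oligonucleotides, over a series of increasing protein concentrations. Unbound RNA was resolved on 8% native PAGE, cut out, reverse-transcribed, barcoded by PCR and sequenced on an Illumina HiSeq 2500. Relative association constants were derived from changes in read counts for each RNA species versus the control reaction and normalised to the cognate motif.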

Binder	binding signal
B1	0.0751 KA relative to UGCAUGU
B2	0.0709 KA relative to UGCAUGU
B3	0.0556 KA relative to UGCAUGU
B4	0.55 KA relative to UGCAUGU
B5	0.0998 KA relative to UGCAUGU
B6	0.14 KA relative to UGCAUGU
B7	0.114 KA relative to UGCAUGU
B8	0.0611 KA relative to UGCAUGU
B9	0.0556 KA relative to UGCAUGU
B10	0.0842 KA relative to UGCAUGU
B11	0.108 KA relative to UGCAUGU
B12	0.0922 KA relative to UGCAUGU
B13	0.0563 KA relative to UGCAUGU
B14	0.148 KA relative to UGCAUGU
B15	0.0552 KA relative to UGCAUGU
B16	0.0815 KA relative to UGCAUGU

Binder	binding signal
B17	0.101 KA relative to UGCAUGU
B18	0.064 KA relative to UGCAUGU
B19	0.0776 KA relative to UGCAUGU
B20	0.0804 KA relative to UGCAUGU
B21	0.255 KA relative to UGCAUGU
B22	0.0961 KA relative to UGCAUGU
B23	0.107 KA relative to UGCAUGU
B24	0.128 KA relative to UGCAUGU
B25	0.127 KA relative to UGCAUGU
B26	0.0833 KA relative to UGCAUGU
B27	0.0838 KA relative to UGCAUGU
B28	0.0922 KA relative to UGCAUGU
B29	0.0629 KA relative to UGCAUGU
B30	0.0965 KA relative to UGCAUGU
B31	0.106 KA relative to UGCAUGU
